Hit rate of the full screen: of about 1,900 compounds, about 40 (2%) showed an effect of 50% or more. Some of the results follow. Starred links: 1 amine or outer side, 2 acyl side, 3 side chain; linkers in the order of their positions; H or OH if unused. Positions of bridges follow the written chain, without caps; N, C: chain ends. Non-standard residues stand in square brackets, D forms with d. Residues, ends and D or L forms follow the SMILES beside them. ξ: configuration not given here. *: point of attachment. ΔAla(E,3-NHCONH2) = NC(=O)N/C=C(/N)C(=O)O; X1 = N=C1NCCC(C(N[*:1])C(=O)[*:2])N1; ξβ3hOrn = NCCCC(N)CC(=O)*; Dap = NC[CH](N)C(=O)O
molecular target: human SGLT1 (hSGLT1) (human, UniProt P13866); assay: primary screen, percent of control activity; higher = less effect of the substance; set-up: single well; details: 50 µM
Summary of the method: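 Single-point screen at 50 µmol/L in CHO-hSGLT1 cells, with 160 µmol/L 1-NBD-glucose in glucose-free DMEM for 90 min at 37°C. Fluorescence from isopropanol extracts was calibrated, and CHO wild-type uptake was subtracted. Data are percent of uptake without compound.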

Sequence of human SGLT1 (hSGLT1) (P13866 whole entry, looked up): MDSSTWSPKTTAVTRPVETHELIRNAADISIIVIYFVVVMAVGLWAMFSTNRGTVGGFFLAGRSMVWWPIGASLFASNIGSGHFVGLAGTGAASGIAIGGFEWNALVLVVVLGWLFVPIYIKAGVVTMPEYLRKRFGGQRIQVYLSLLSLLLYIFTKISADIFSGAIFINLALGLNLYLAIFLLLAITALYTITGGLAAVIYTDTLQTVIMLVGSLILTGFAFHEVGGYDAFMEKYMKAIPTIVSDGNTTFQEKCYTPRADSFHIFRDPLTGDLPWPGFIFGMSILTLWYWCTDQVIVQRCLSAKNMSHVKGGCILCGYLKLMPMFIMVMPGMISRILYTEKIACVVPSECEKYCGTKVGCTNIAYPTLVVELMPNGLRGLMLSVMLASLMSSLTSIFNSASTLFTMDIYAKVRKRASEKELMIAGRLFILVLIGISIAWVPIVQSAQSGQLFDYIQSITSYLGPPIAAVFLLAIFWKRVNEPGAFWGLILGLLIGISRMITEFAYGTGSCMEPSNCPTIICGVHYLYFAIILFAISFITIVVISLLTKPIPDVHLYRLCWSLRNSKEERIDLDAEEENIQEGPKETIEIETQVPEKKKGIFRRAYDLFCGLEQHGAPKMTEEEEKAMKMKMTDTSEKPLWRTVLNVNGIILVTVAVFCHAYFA

Compound	NORMALIZED SGLT1 ACTIVITY (%)
NC(=O)c1ccc(N)nc1	123%
COc1cc2ccc(=O)oc2c2ccoc12	161%
CC(C)CCCC(C)[C@H]1CCC2C3CC[C@@H]4C[C@H](O)CC[C@]4(C)C3CC[C@@]21C (some centres unmarked)	108%
CC(C)=CCCC1(C)C=Cc2c(O)c3c(c(CC=C(C)C)c2O1)OC12C(=CC4CC1C(C)(C)OC2(C/C=C(/C)C(=O)O)C4=O)C3=O (centres unmarked)	163%
Cc1ccnc(NS(=O)(=O)c2ccc(N)cc2)n1	123%
C[C@H]1NC(=O)NC1=O	104%
O=C1OC(=O)C2C3CCC(O3)C12 (centres unmarked)	124%
c1ccc2c(c1)[nH]c1cnccc12	352%
CC1=CC(=O)C(C(C)C)=CC1=O	90%
OCCN1CCN(CCCN2c3ccccc3Sc3ccc(Cl)cc32)CC1	17%
Cc1ccccc1OCC(O)CO (centres unmarked)	115%
Cc1nccc2c1[nH]c1ccccc12	443%
CCCn1c(=O)c2nc(C3CCCC3)[nH]c2n(CCC)c1=O	180%
O=C(O)c1cc(O)ccc1O	145%
CC(=O)OCC(=O)[C@@]1(O)CCC2C3CCC4=CC(=O)C=CC4(C)C3[C@@H](O)C[C@@]21C (some centres unmarked)	123%
CC(C)Cc1ccc(C(C)C(=O)O)cc1 (centres unmarked)	232%
COc1ccc2c(c1)[C@@]1(C)CC[C@@H](O)C[C@@H]1CC2	116%
CC1(C)CC23C(=O)CCC(O)C2(C)CCC13 (centres unmarked)	101%
CCN(CC)C(=S)SSC(=S)N(CC)CC	98%
CC(=O)OC(C)(C)[C@@H]1Cc2cc3ccc(=O)oc3cc2O1	152%
C=C[C@@]1(C)CC(=O)[C@]2(O)[C@@]3(C)[C@@H](O)CCC(C)(C)[C@@H]3[C@H](O)[C@H](OC(C)=O)[C@@]2(C)O1	67%
O=C(O)c1cc(O)c2cccc(O)c2n1	107%
C[N+](C)(C)CC(=O)[O-].Cl	106%

Compound	NORMALIZED SGLT1 ACTIVITY (%)
COc1ccc2[nH]cc(CCN)c2c1.Cl	120%
CCC(C)C(=O)O[C@@H]1C[C@@]2(C)[C@H](c3ccoc3)OC(=O)CC23OC2(C)OC34[C@H](OC(=O)C(C)C)[C@@]3(O)[C@@H](OC(=O)C5(C)OC5C)[C@@]5(C)C[C@]3(O)[C@@](C)([C@H]5CC(=O)OC)C14O2 (some centres unmarked)	122%
CC(C[N+](C)(C)C)OC(N)=O.[Cl-] (centres unmarked)	102%
O.O=c1ccc2cc(O[C@@H]3O[C@H](CO)[C@@H](O)[C@H](O)[C@H]3O)c(O)cc2o1	125%
Cc1ccc(C(=O)C(C)CN2CCCCC2)cc1.Cl (centres unmarked)	107%
C[C@H]1COc2c(N3CCN(C)CC3)c(F)cc3c(=O)c(C(=O)O)cn1c23	137%
C/C(=C(\CCOP(=O)(O)O)SC(=O)c1ccccc1)N(C=O)Cc1cnc(C)nc1N	104%
COC(=O)Nc1nc2cc(C(=O)c3ccccc3)ccc2[nH]1	192%
C[C@]12CCC3c4ccc(O)cc4CCC3C1CCC2=O (some centres unmarked)	149%
Cl.NC1C[C@H]1c1ccccc1 (some centres unmarked)	112%
Cc1ccc(/N=C/N(C)/C=N/c2ccc(C)cc2C)c(C)c1	105%
C[N+]1(C)C2CC[C@H]1C[C@@H](OC(=O)C(O)c1ccccc1)C2.[Br-] (some centres unmarked)	82%
CCCCNc1cc(C(=O)O)cc(S(N)(=O)=O)c1Oc1ccccc1	111%
COc1cc2c(cc1OC)C1C(=O)c3c(cc4c(c3O)C=CC(C)(C)O4)OC1CO2 (centres unmarked)	255%
CC(=O)OCC(=O)[C@@]1(O)[C@H](C)C[C@H]2[C@@H]3CCC4=CC(=O)C=C[C@]4(C)[C@@]3(F)[C@@H](O)C[C@@]21C	148%
CCS(=O)(=O)CCn1c([N+](=O)[O-])cnc1C	123%
COc1ccc(C(=O)c2ccccc2)c(O)c1	26%
CC1=C(/C=C/C(C)=C/C=C/C(C)=C/C=C/C=C(C)/C=C/C=C(C)/C=C/C2=C(C)CCCC2(C)C)C(C)(C)CCC1	155%
N=C(N)NCCCCN.O=S(=O)(O)O	105%
CC[C@H]1OC(=O)C[C@@H](O)[C@H](C)[C@@H](O[C@@H]2O[C@H](C)[C@@H](O[C@H]3C[C@@](C)(O)[C@@H](O)[C@H](C)O3)[C@H](N(C)C)[C@H]2O)[C@@H](CC=O)C[C@@H](C)C(=O)/C=C/C(C)=C/[C@@H]1CO[C@@H]1O[C@H](C)[C@@H](O)[C@@H](OC)[C@H]1OC	104%
CC(C)(O)[C@@H]1[C@H]2OC(=O)[C@@H]1[C@]1(O)C[C@H]3O[C@]34C(=O)O[C@H]2[C@]14C	88%
O=C(O)CCCc1ccc(N(CCCl)CCCl)cc1	83%
c1ccc2c(c1)sc1ccccc12	264%

Compound	NORMALIZED SGLT1 ACTIVITY (%)
COC(=O)C(O)[C@H]1C(C)(C)[C@@H](OC(C)=O)[C@@H]2CC3=C4CC(=O)O[C@@H](c5ccoc5)[C@]4(C)CCC3[C@@]1(C)C2=O (some centres unmarked)	75%
COc1ccc2c(c1)OC/C(=C/c1ccc(OC)c(OC)c1)C2=O	110%
CC[C@@H](CO)NCCN[C@@H](CC)CO.Cl.Cl	90%
COC1=CC(=O)C[C@@H](C)[C@]12Oc1c(Cl)c(OC)cc(OC)c1C2=O	122%
COC(=O)c1c(OC)cc2c(c1C)Oc1c(Cl)c(O)c(Cl)c(C)c1C(=O)O2	520%
N#Cc1c(Cl)cccc1Cl	120%
CC(C)N(C(=O)CCl)c1ccccc1	140%
COc1c2c(cc3c1OCO3)C13C=C[C@H](OC)CC1N(C2)CC3O (some centres unmarked)	92%
COc1c2c(cc3c1OCO3)CCN(C)C2	86%
Nc1nc(N)c2nc(CNc3ccc(C(=O)N[C@@H](CCC(=O)O)C(=O)O)cc3)cnc2n1	197%
O=C(O)c1cc(O)c(=O)c2c(O)c(O)ccc2c1	141%
CN1Cc2c(ccc3c2OCO3)C2C(O)Cc3cc4c(cc3C21)OCO4 (centres unmarked)	70%
CC(C)c1c(O)ccc2c1CC[C@H]1C(C)(C)CCC[C@]21C	191%
CC(=O)OCC(=O)[C@@]1(O)CCC2C3C[C@H](C)C4=CC(=O)C=CC4(C)C3[C@@H](O)CC21C (some centres unmarked)	184%
OCC(O)CN1CCN(c2ccccc2)CC1 (centres unmarked)	115%
CCCC1O[C@@H]2C[C@H]3[C@@H]4CCC5=CC(=O)C=C[C@]5(C)[C@H]4[C@@H](O)C[C@]3(C)[C@]2(C(=O)CO)O1 (some centres unmarked)	175%
Cc1cc(O)ccc1Cl	157%
COC(=O)Nc1nc2cc(C(=O)c3cccs3)ccc2[nH]1	137%
C=C1CC[C@@H]2[C@](C)(CO)[C@H](O)CC[C@@]2(C)[C@@H]1C/C=C1/C(=O)OC[C@H]1O	101%
O=c1ccc2ccc(O)cc2o1	161%
O=P(O)(O)O.c1ccc(CN(CC2=NCCN2)c2ccccc2)cc1	87%
COC(=O)COc1ccc(Cl)cc1Cl	235%
Nc1ccc(S(=O)(=O)c2ccc(N)cc2)cc1	97%

Compound	NORMALIZED SGLT1 ACTIVITY (%)
O=C1NS(=O)(=O)c2ccccc21	91%
CN(C)CCCN1c2ccccc2CCc2ccccc21.Cl	76%
NC(=O)NCCC[C@H](N)C(=O)O	98%
CC(N)C(O)c1ccc(O)c(O)c1.Cl (centres unmarked)	124%
CCN(CC)CCOC(=O)C(Cc1cccc2ccccc12)CC1CCCO1.O=C(O)C(=O)O (centres unmarked)	116%
C=C[C@H]1CN2CC[C@H]1C[C@@H]2[C@H](O)c1ccnc2ccc(OC)cc12.O=S(=O)(O)O	77%
COc1ccc(-c2cc(C(F)F)nn2-c2ccc(S(N)(=O)=O)cc2)cc1F	144%
O=c1cc(-c2ccccc2)oc2c(O)c(O)ccc12	282%
Cl.NNc1nncc2ccccc12	144%
CC(=O)OCC(=O)[C@@]12OC(C)(C)O[C@@H]1C[C@H]1[C@@H]3C[C@H](F)C4=CC(=O)C=C[C@]4(C)[C@@]3(F)[C@@H](O)C[C@@]12C	127%
O=C1[N-]C(=O)C(c2ccccc2)(c2ccccc2)N1.[Na+]	129%
C[C@@H]1C[C@@H]([C@H](O)CC2CC(=O)NC(=O)C2)C(=O)[C@@H](C)C1	97%
Clc1ccc2c(c1)C(N1CCNCC1)=Nc1ccccc1O2	162%
CCCCN(CC)c1c([N+](=O)[O-])cc(C(F)(F)F)cc1[N+](=O)[O-]	63%
C[C@@H]1CC[C@@]2(OC1)OC1CC3C4CC=C5C[C@@H](O)CC[C@]5(C)C4CC[C@]3(C)C1[C@@H]2C (some centres unmarked)	97%
Cl.c1cncc(C2CCCCN2)c1 (centres unmarked)	68%
N=C(N)NCCCCNC(=N)N.O=S(=O)(O)O	113%
N=C1NCCC(C2NC(=O)/C(=C\NC(N)=O)NC(=O)C(CNC(=O)CC(N)CCCN)NC(=O)C(CO)NC(=O)C(N)CNC2=O)N1.O=S(=O)(O)O (stereo not drawn) (H-[Dap]S[Dap](ξβ3hOrn)[ΔAla(E,3-NHCONH2)][X1]; lactam 1-C; configuration not given here)	116%
N#CC(O[C@@H]1O[C@H](CO[C@@H]2O[C@H](CO)[C@@H](O)[C@H](O)[C@H]2O)[C@@H](O)[C@H](O)[C@H]1O)c1ccccc1 (some centres unmarked)	103%
NC[C@H]1O[C@H](O[C@H]2[C@H](O)[C@@H](O[C@H]3O[C@H](CO)[C@@H](O)[C@H](N)[C@H]3O)[C@H](N)C[C@@H]2N)[C@H](O)[C@@H](O)[C@@H]1O.O=S(=O)(O)O	143%
CC1(C)Oc2ccc3ccc(=O)oc3c2CC1O (centres unmarked)	159%
CCn1cc(C(=O)O)c(=O)c2cc(F)c(N3CCNC(C)C3)c(F)c21.Cl (centres unmarked)	156%
Nc1ncnc2c1ncn2[C@@H]1O[C@H](CO)[C@@H](O)[C@H]1O	161%
